Here are results for 23 molecules from PubChem BioAssay AID2202238 (Ras Initiative Chemistry Research Team, Frederick National …, 2025).

This is one part of the list. These are further read-outs of the screen, such as a control signal, another cell line or another target. No call is given for them.

The assay addresses GTPase KRas (Homo sapiens) (UniProt P01116). The experiment in a line: Covalent labelling of cysteine mutants by fragments, read by mass spectrometry (AID 2202238). The note with it: KRAS G12D cysteine mutants, disulfide tethering, MALDI-TOF labeling, stronger effect = higher value, fragment at 500 µM. Details: protein at 5 µM with 500 µM competing thiol for 1.5 h.
Where [1] appears, read: measured here: G60C mutant labeling.
[2] abbreviates: measured here: G75C mutant labeling.
Where [3] appears, read: measured here: H94C mutant labeling.
The mark [4] stands for this setting: measured here: I36C mutant labeling.
[5] abbreviates: measured here: L120C mutant labeling.
Where [6] appears, read: measured here: M67C mutant labeling.
The mark [7] stands for this setting: measured here: M72C mutant labeling.
Setting [8] is: measured here: N26C mutant labeling.
[9] abbreviates: measured here: N86C mutant labeling.
The mark [10] stands for this setting: measured here: P121C mutant labeling.
[11] abbreviates: measured here: S122C mutant labeling.
Where [12] appears, read: measured here: S136C mutant labeling.

Chain of UniProt P01116 (P01116 whole entry, looked up, the tested form may be a part): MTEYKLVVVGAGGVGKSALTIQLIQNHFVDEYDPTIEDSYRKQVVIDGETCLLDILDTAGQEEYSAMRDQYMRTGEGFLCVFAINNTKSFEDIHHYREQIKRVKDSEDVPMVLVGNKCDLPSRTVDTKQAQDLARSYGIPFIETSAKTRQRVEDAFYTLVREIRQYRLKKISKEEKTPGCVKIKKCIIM

The molecule `O=C(NCCS)c1cn[nH]c1-c1ccc(F)c(Cl)c1` yielded a percent labeling under setting [1] of 55.2%; a percent labeling under setting [2] of 39.7%; a percent labeling under setting [3] of 38.8%; a percent labeling under setting [4] of 19.3%; a percent labeling under setting [5] of 38.7%; a percent labeling under setting [6] of 42.8%. Further, the percent labeling runs as follows: under setting [7], 76.4%; under setting [8], 42%; under setting [9], 22.3%; under setting [10], 29.3%; under setting [11], 19.7%; under setting [12], 35.9%.

Regarding `O=C(NCCS)C1(c2ccccc2F)CCCC1`, the percent labeling reads like this: under setting [1], 60.6%; under setting [2], 24%; under setting [3], 35.4%; under setting [4], 29%; under setting [5], 44.3%; under setting [6], 28.2%. Besides, the percent labeling runs as follows: under setting [7], 57.3%; under setting [8], 34.4%; under setting [9], 24.2%; under setting [10], 28.1%; under setting [11], 26.4%; under setting [12], 51.3%.

With `O=C(CCS)NCCc1nc2ncc(Br)cn2n1`, the percent labeling by setting is: under setting [2], 5.8%; under setting [3], 23.6%; under setting [4], 37.7%; under setting [5], 28.8%; under setting [6], 35.7%; under setting [7], 16%. Further, the percent labeling under setting [9] turned out to be 22.1%, the percent labeling under setting [10] was 34.5%, the percent labeling under setting [11] worked out at 23.7% and the percent labeling under setting [12] was found to be 44.4%.

As to `Cc1sc(=O)n(CC(=O)NCCS)c1-c1ccccc1`, the percent labeling runs as follows: under setting [1], 46.5%; under setting [2], 17.2%; under setting [3], 28.7%; under setting [4], 27.6%; under setting [5], 35.1%; under setting [6], 42.2%. Also, the percent labeling came out at 38.4% under setting [7]; 34.7% under setting [8]; 20.3% under setting [9]; 24% under setting [10]; 25.3% under setting [11]; 47.5% under setting [12].

As to `COCCN(CCOc1ccc(F)cc1)C(=O)CCS`, the percent labeling is 17.1% under setting [2]; 42.1% under setting [3]; 36.4% under setting [4]; 27.4% under setting [5]; 42% under setting [6]; 33.4% under setting [7]. Also, the percent labeling runs as follows: under setting [9], 21%; under setting [10], 33.6%; under setting [11], 31.5%; under setting [12], 54.6%.

In the case of `O=C(CCS)NC1CCCN(c2cc(=O)[nH]cn2)C1` (stereo unspecified), the percent labeling is, setting by setting: under setting [2], 9.8%; under setting [3], 33.7%; under setting [4], 40.4%; under setting [5], 31.5%; under setting [6], 38.4%; under setting [7], 20.5%. Moreover, the percent labeling was 44% under setting [9], 41.8% under setting [10], 34.3% under setting [11] and 54.2% under setting [12].

For the molecule `Cc1cc(N2CCC(NC(=O)CCS)C2)n(C)n1` (stereo unspecified), the percent labeling is 6% under setting [2]; 20.6% under setting [3]; 24.2% under setting [4]; 16.3% under setting [5]; 24.2% under setting [6]; 10.1% under setting [7]. Besides, the percent labeling is, setting by setting: under setting [9], 5.6%; under setting [10], 24.2%; under setting [11], 21.1%; under setting [12], 36.2%.

With `O=C(CCS)N1Cc2ccc(O)cc2C2(CC2)C1`, the percent labeling came to 22.2% under setting [2]; 23.4% under setting [3]; 27.8% under setting [4]; 16.6% under setting [5]; 26.7% under setting [6]; 41.2% under setting [7]. Further, the percent labeling is, setting by setting: under setting [9], 15.3%; under setting [10], 25.2%; under setting [11], 22.5%; under setting [12], 52%.

`O=C(NCCS)c1ccc(Cc2ccccc2)[nH]1`: the percent labeling is 12.3% under setting [1]; 8.3% under setting [2]; 9.3% under setting [3]; 9.7% under setting [4]; 17.6% under setting [5]; 10.1% under setting [6]. The same molecule returned a percent labeling under setting [7] of 23.7%; a percent labeling under setting [8] of 18.9%; a percent labeling under setting [9] of 5.6%; a percent labeling under setting [10] of 8.7%; a percent labeling under setting [11] of 6%; a percent labeling under setting [12] of 12.1%.

Consider `O=C(CCS)Nc1ccc2c(=O)cc[nH]c2c1`, for which the percent labeling reads like this: under setting [2], 16.5%; under setting [3], 20.2%; under setting [4], 40.2%; under setting [5], 22.5%; under setting [6], 19.9%; under setting [7], 30.9%. The percent labeling came to 26.6% under setting [9], 23.9% under setting [10], 14.1% under setting [11] and 40.4% under setting [12].

Consider `CC(C)(C)c1ccc2[nH]c(C(=O)NCCS)cc2c1`, for which the percent labeling came to 16.3% under setting [1]; 10.5% under setting [2]; 8.5% under setting [3]; 7.3% under setting [4]; 14.7% under setting [5]; 8.4% under setting [6]. Besides, the percent labeling under setting [7] came to 23.4%; the percent labeling under setting [8] was found to be 15.1%; the percent labeling under setting [9] worked out at 11.9%; the percent labeling under setting [10] turned out to be 10.8%; the percent labeling under setting [11] was 9.1%; the percent labeling under setting [12] is 11.2%.

`CC(=O)NC1(c2noc(CCC(=O)NCCS)n2)CCCCCC1`: the percent labeling stood at 28.5% under setting [1]; 9.5% under setting [2]; 27.4% under setting [3]; 19.8% under setting [4]; 35.6% under setting [5]; 26.2% under setting [6]. Moreover, the percent labeling stood at 14.4% under setting [7]; 31.9% under setting [8]; 16.9% under setting [9]; 29% under setting [10]; 25.1% under setting [11]; 34% under setting [12].

For the molecule `Cc1c[nH]c(=O)n1-c1ccc(C(=O)NCCS)cc1`, the percent labeling stood at 13.3% under setting [1]; 4% under setting [2]; 8.3% under setting [3]; 0% under setting [4]; 11.5% under setting [5]; 8.1% under setting [6]. The molecule also yielded a percent labeling under setting [7] of 6.8%; a percent labeling under setting [8] of 16.9%; a percent labeling under setting [9] of 11.6%; a percent labeling under setting [10] of 11.1%; a percent labeling under setting [11] of 12.3%; a percent labeling under setting [12] of 15.2%.

Consider `O=C(CCS)N1CCN(c2ccc(F)cc2Cl)CC1`, for which the percent labeling is, setting by setting: under setting [2], 17.9%; under setting [3], 22.6%; under setting [4], 26.6%; under setting [5], 19.9%; under setting [6], 20.4%; under setting [7], 38.7%. The percent labeling stood at 19.1% under setting [9], 20.4% under setting [10], 18.3% under setting [11] and 37.3% under setting [12].

Consider `CC(=O)Nc1ccc(CNC(=O)CCS)cc1`, for which the percent labeling is, setting by setting: under setting [2], 11.5%; under setting [3], 25.2%; under setting [4], 40.3%; under setting [5], 27.1%; under setting [6], 31.2%; under setting [7], 20.7%. Moreover, the percent labeling by setting is: under setting [9], 29%; under setting [10], 29.6%; under setting [11], 34.7%; under setting [12], 39.2%.

As to `O=C(CCS)N1CC(c2nnc(CO)s2)C1`, the percent labeling runs as follows: under setting [2], 5.3%; under setting [3], 15.6%; under setting [4], 20%; under setting [5], 17.8%; under setting [6], 24.7%; under setting [7], 9.9%. The percent labeling by setting is: under setting [9], 10.6%; under setting [10], 28.6%; under setting [11], 21%; under setting [12], 34.9%.

Take `Cn1cnc2ccc(C(=O)NCCS)nc21`: the percent labeling reads like this: under setting [1], 33.6%; under setting [2], 25.4%; under setting [3], 40.5%; under setting [4], 26.4%; under setting [5], 32.2%; under setting [6], 33.2%. The percent labeling reads like this: under setting [7], 47.9%; under setting [8], 47.2%; under setting [9], 26.6%; under setting [10], 27.6%; under setting [11], 27.8%; under setting [12], 51.5%.

Take `Cc1cc(C)n2nc(C)c(C(=O)NCCS)c2n1`: the percent labeling worked out at 28.8% under setting [1]; 22.4% under setting [2]; 22.5% under setting [3]; 8.4% under setting [4]; 16.2% under setting [5]; 29.1% under setting [6]. Also, the percent labeling is, setting by setting: under setting [7], 34.3%; under setting [8], 34%; under setting [9], 10.4%; under setting [10], 12.9%; under setting [11], 10.9%; under setting [12], 35.9%.

In the case of `COc1ccccc1Cn1cnc2cc(C(=O)NCCS)ccc21`, the percent labeling under setting [1] was 20%; the percent labeling under setting [2] is 11.4%; the percent labeling under setting [3] turned out to be 8.3%; the percent labeling under setting [4] stood at 5.6%; the percent labeling under setting [5] came out at 12.7%; the percent labeling under setting [6] amounted to 13.2%. In addition, the percent labeling under setting [7] was determined as 28.8%; the percent labeling under setting [8] worked out at 27.4%; the percent labeling under setting [9] was determined as 5.2%; the percent labeling under setting [10] worked out at 7%; the percent labeling under setting [11] was 3.7%; the percent labeling under setting [12] came to 16.8%.

For `Cc1cc(C)c(C)c(OCCC(=O)NCCS)c1`, the percent labeling runs as follows: under setting [1], 26.5%; under setting [2], 11.5%; under setting [3], 13.9%; under setting [4], 9.7%; under setting [5], 21.3%; under setting [6], 7.5%. Also, the percent labeling came to 19.3% under setting [7]; 21% under setting [8]; 5.3% under setting [9]; 13.5% under setting [10]; 8.1% under setting [11]; 14.6% under setting [12].

Regarding `O=C(NCCS)c1c[nH]cc1Cc1ccccc1`, the percent labeling is, setting by setting: under setting [1], 25.4%; under setting [2], 11.8%; under setting [3], 18.8%; under setting [4], 4.3%; under setting [5], 18%; under setting [6], 15.4%. The percent labeling is 22.9% under setting [7]; 13% under setting [8]; 2.6% under setting [9]; 9% under setting [10]; 0% under setting [11]; 4.7% under setting [12].

The molecule `Cc1cc(NC(=O)CCS)nn1Cc1cccc(C(F)(F)F)c1` displayed a percent labeling under setting [2] of 10.4%; a percent labeling under setting [3] of 11.9%; a percent labeling under setting [4] of 11%; a percent labeling under setting [5] of 13.8%; a percent labeling under setting [6] of 10.2%; a percent labeling under setting [7] of 23.5%. Further, the percent labeling is, setting by setting: under setting [9], 13%; under setting [10], 9.5%; under setting [11], 7.7%; under setting [12], 18.2%.

Take `Cc1c(C(=O)NCCS)oc2ccccc2c1=O`: the percent labeling under setting [1] turned out to be 21.5%; the percent labeling under setting [2] is 17.1%; the percent labeling under setting [3] came out at 16.8%; the percent labeling under setting [4] was 12.2%; the percent labeling under setting [5] was determined as 13.2%; the percent labeling under setting [6] was 14.1%. Further, the percent labeling runs as follows: under setting [7], 47.4%; under setting [8], 34.5%; under setting [9], 9.1%; under setting [10], 46%; under setting [11], 9.3%; under setting [12], 26.2%.
